Experimental data from the BET-seq Pho4 binding data (Le et al. 2018).
Some of the results follow. The energies were worked out here from pooled read counts, against the library average; single values are noisy.

What follows are sequences tested against T1, Pho4 (S. cerevisiae) (UniProt P07270) (assay: relative binding free energy (BET-seq); higher = weaker binding). Settings: reference: library average.
T1 sequence: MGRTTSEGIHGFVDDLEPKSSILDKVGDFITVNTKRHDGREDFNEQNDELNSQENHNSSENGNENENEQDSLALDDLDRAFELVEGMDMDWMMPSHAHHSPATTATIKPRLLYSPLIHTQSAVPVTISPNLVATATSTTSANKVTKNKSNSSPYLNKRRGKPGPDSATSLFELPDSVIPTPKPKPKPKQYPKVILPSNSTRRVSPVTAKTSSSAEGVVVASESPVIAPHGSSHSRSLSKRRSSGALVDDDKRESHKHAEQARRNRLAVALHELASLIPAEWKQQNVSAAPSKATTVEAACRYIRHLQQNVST
In the case of GTTCGCACGTGGTTTG, the “relative binding free energy” value is reported as 0.05 kcal/mol. TATTACACGTGGTTAC was tested, and the “relative binding free energy” value was 0.1 kcal/mol. For CTAGTCACGTGCGGTA, the “relative binding free energy” value was 0.22 kcal/mol. CATAGCACGTGGTGTT was tested, and the “relative binding free energy” value was -0.08 kcal/mol. With GTAGGCACGTGTATTG the “relative binding free energy” value was 0.07 kcal/mol. GTGGGCACGTGATTTA was tested, and the “relative binding free energy” value was 0.04 kcal/mol. TGGGTCACGTGATTAG was tested, and the “relative binding free energy” value was 0.19 kcal/mol. TGGTTCACGTGAGATT was tested, and the “relative binding free energy” value was 0.31 kcal/mol. With TGAGACACGTGGGGTC the “relative binding free energy” value was -0.29 kcal/mol. In the case of GTTATCACGTGAATTG, the “relative binding free energy” value is reported as 0.41 kcal/mol. In the case of TTTACCACGTGAGTGT, the “relative binding free energy” value is reported as 0.1 kcal/mol. In the case of GTTATCACGTGAGAAT, the “relative binding free energy” value is reported as 0.46 kcal/mol. With AGGTTCACGTGTATGT the “relative binding free energy” value was 0.31 kcal/mol. In the case of TGTCGCACGTGTGTAT, the “relative binding free energy” value is reported as -0.14 kcal/mol. With TTGAGCACGTGATATT the “relative binding free energy” value was -0.01 kcal/mol. For GTATTCACGTGTTAGG, the “relative binding free energy” value was 0.32 kcal/mol. For TGTGGCACGTGGGGTG, the “relative binding free energy” value was -0.19 kcal/mol. In the case of TTGGTCACGTGAACGA, the “relative binding free energy” value is reported as 0.36 kcal/mol. In the case of GAGTTCACGTGTTATT, the “relative binding free energy” value is reported as 0.42 kcal/mol. TTTGGCACGTGGAAGA was tested, and the “relative binding free energy” value was 0.09 kcal/mol. With TGGGGCACGTGGAGAT the “relative binding free energy” value was -0.02 kcal/mol. In the case of TTGATCACGTGGTGGT, the “relative binding free energy” value is reported as 0.15 kcal/mol. In the case of GATGGCACGTGATGTC, the “relative binding free energy” value is reported as 0.03 kcal/mol. With GGGGGCACGTGGCGTA the “relative binding free energy” value was -0.12 kcal/mol. In the case of AATTTCACGTGTGAGC, the “relative binding free energy” value is reported as 0.38 kcal/mol. In the case of GAGTTCACGTGATATG, the “relative binding free energy” value is reported as 0.38 kcal/mol. With GGCGGCACGTGGGGAC the “relative binding free energy” value was -0.15 kcal/mol. With GGGCTCACGTGCTGGT the “relative binding free energy” value was 0.15 kcal/mol. For GTTTACACGTGTATGC, the “relative binding free energy” value was 0.1 kcal/mol. In the case of AATTTCACGTGGTCTA, the “relative binding free energy” value is reported as 0.17 kcal/mol. For GTGTTCACGTGCTGAT, the “relative binding free energy” value was 0.24 kcal/mol. TATGACACGTGATTGT was tested, and the “relative binding free energy” value was 0.19 kcal/mol. With ATATGCACGTGACGTT the “relative binding free energy” value was 0.18 kcal/mol. In the case of CATGTCACGTGGGATG, the “relative binding free energy” value is reported as 0 kcal/mol. For CGAGGCACGTGGAAGG, the “relative binding free energy” value was -0.04 kcal/mol. In the case of GTATTCACGTGCTATT, the “relative binding free energy” value is reported as 0.15 kcal/mol. With TTTTACACGTGGTGAA the “relative binding free energy” value was 0.06 kcal/mol. In the case of GGATGCACGTGGTTTC, the “relative binding free energy” value is reported as 0.11 kcal/mol. TTATTCACGTGAATTT was tested, and the “relative binding free energy” value was 0.4 kcal/mol. With GTTATCACGTGTGATG the “relative binding free energy” value was 0.21 kcal/mol. For TTTGTCACGTGGGAGC, the “relative binding free energy” value was -0.06 kcal/mol. With GTTGTCACGTGGTCGA the “relative binding free energy” value was 0.06 kcal/mol. With GGCGGCACGTGGACAT the “relative binding free energy” value was 0.09 kcal/mol. GAATGCACGTGGTTAG was tested, and the “relative binding free energy” value was 0.15 kcal/mol. TTTGACACGTGTTGAT was tested, and the “relative binding free energy” value was -0.04 kcal/mol. In the case of GACGGCACGTGGGAGT, the “relative binding free energy” value is reported as -0.13 kcal/mol. GGCGGCACGTGCAAGG was tested, and the “relative binding free energy” value was 0.02 kcal/mol. In the case of TTATACACGTGAAGTT, the “relative binding free energy” value is reported as 0.23 kcal/mol. In the case of AACGTCACGTGTGTTT, the “relative binding free energy” value is reported as 0.23 kcal/mol. For GGTGTCACGTGTGTTA, the “relative binding free energy” value was 0.18 kcal/mol. TAGTGCACGTGGCATG was tested, and the “relative binding free energy” value was -0.22 kcal/mol. TTGACCACGTGGGAGT was tested, and the “relative binding free energy” value was -0.14 kcal/mol. GAGTGCACGTGGGGTG was tested, and the “relative binding free energy” value was -0.11 kcal/mol. With GGTATCACGTGTACGT the “relative binding free energy” value was 0.21 kcal/mol. In the case of GAGCTCACGTGTGGGT, the “relative binding free energy” value is reported as 0.42 kcal/mol. In the case of ATGCGCACGTGGTGAT, the “relative binding free energy” value is reported as -0.22 kcal/mol. In the case of ATTATCACGTGAAGGT, the “relative binding free energy” value is reported as 0.34 kcal/mol. CAGATCACGTGTATGT was tested, and the “relative binding free energy” value was 0.19 kcal/mol. For AATGTCACGTGCGGGA, the “relative binding free energy” value was 0.05 kcal/mol. For AATAGCACGTGTAGTG, the “relative binding free energy” value was -0.07 kcal/mol. For TTTGTCACGTGCAGAG, the “relative binding free energy” value was 0.03 kcal/mol. In the case of ACGGTCACGTGAGGGC, the “relative binding free energy” value is reported as 0.33 kcal/mol. With TGTTGCACGTGGTGCT the “relative binding free energy” value was -0.08 kcal/mol. In the case of TATGTCACGTGCATTG, the “relative binding free energy” value is reported as 0.15 kcal/mol. In the case of TGTATCACGTGATGTG, the “relative binding free energy” value is reported as 0.19 kcal/mol. For GACTACACGTGTTGGT, the “relative binding free energy” value was 0.23 kcal/mol. For GGGGGCACGTGAGGAC, the “relative binding free energy” value was 0.22 kcal/mol. GCTGGCACGTGAATGG was tested, and the “relative binding free energy” value was 0.08 kcal/mol. With TGTGCCACGTGCGGAG the “relative binding free energy” value was -0.18 kcal/mol. With AGTGTCACGTGTGTCG the “relative binding free energy” value was 0.04 kcal/mol. In the case of GGTGTCACGTGTCTAT, the “relative binding free energy” value is reported as 0.29 kcal/mol. In the case of GTCGGCACGTGGTACG, the “relative binding free energy” value is reported as -0.12 kcal/mol. In the case of TGCAACACGTGGGGTA, the “relative binding free energy” value is reported as -0.29 kcal/mol.
